# The other results are listed elsewhere or left out.
# Tested on: HepG2
# Assay: cytotoxicity call (relative viability < 0.9)
# Conditions: 10 µM
row,SMILES,cytotoxicity call
1,O=C(C[C@H]1C[C@@H]2c3cc(NC(=O)Nc4ccc(C(F)(F)F)cc4)ccc3O[C@@H]2[C@@H](CO)O1)NCCc1ccccc1,inactive
2,CN(CC(=O)Nc1ccc(F)cc1F)S(=O)(=O)c1ccc2c(c1)c(=O)n(C)c(=O)n2C,inactive
3,O=C(N[C@@H](c1ccc(-c2ccccc2)cc1)c1cnccn1)C1CCN(CCOc2ccc(F)cc2)CC1,active
4,CCCC#Cc1ccc2c(c1)O[C@@H](CN(C)C(=O)c1cnccn1)[C@H](C)CN([C@@H](C)CO)S2(=O)=O,inactive
5,CC(=O)n1cc([C@@H]2C=C(C(=O)N3CCCCCCC3)O[C@H](OCc3ccc(CO)cc3)C2)c2ccccc21,inactive
6,COc1ccc(CN(C)C[C@@H]2Oc3c(NC(=O)CCCCCC(=O)Nc4ccccc4N)cccc3C(=O)N([C@H](C)CO)C[C@H]2C)cc1,inactive
7,C[C@@H]1CN([C@H](C)CO)C(=O)Cc2cc(NC(=O)Nc3ccc(F)cc3)ccc2O[C@@H]1CN(C)C(=O)Nc1cccc2ccccc12,inactive
8,Cn1c(=O)c2[nH]cnc2n(C)c1=O.NCCN,inactive
9,C[C@@H]1CCCCO[C@H](CN(C)S(=O)(=O)c2ccccc2)[C@H](C)CN([C@H](C)CO)C(=O)c2cc(NC(=O)C3CCCCC3)ccc2O1,inactive
10,Cc1ccccc1S(=O)(=O)N1C[C@H](O)COC[C@@H]2O[C@@H](CC(=O)N3CCN(C)CC3)CC[C@H]21,inactive
11,C[C@@H]1CN([C@H](C)CO)C(=O)c2cccc(NC(=O)c3ccc(-c4nccs4)cc3)c2O[C@@H]1CN(C)C(=O)Nc1ccc(F)cc1,inactive
12,COc1ccc(S(=O)(=O)Nc2cccc3c2O[C@H](CN(C)S(=O)(=O)c2ccc(C)cc2)[C@H](C)CN([C@@H](C)CO)C3=O)cc1,inactive
13,O=C(C[C@H]1CC[C@@H](NC(=O)CN2CCOCC2)[C@@H](CO)O1)NCCc1ccncc1,inactive
14,COc1ccc2c(c1)OCC(=Cc1ccc(OC)c(O)c1)C2=O,active
15,Cc1ccc(S(=O)(=O)Nc2ccc3c(c2)C(=O)N([C@H](C)CO)C[C@H](C)[C@H](CN(C)S(=O)(=O)c2ccccc2)O3)cc1,inactive
16,O=C1CC(c2ccc(O)cc2)Oc2cc(O)cc(O)c21 (stereo not given),inactive
17,COCC#Cc1cnc2c(c1)C(=O)N([C@H](C)CO)C[C@@H](C)[C@H](CN(C)C(=O)CN1CCOCC1)O2,inactive
18,C[C@H](CO)N1C[C@H](C)[C@H](CN(C)S(=O)(=O)c2ccc(F)cc2)Oc2ccc(NS(=O)(=O)c3cccs3)cc2C1=O,inactive
19,C=CC[C@H](CC(=O)NCCO)C(=O)N[C@@H](COC(=O)[C@@H](CC=C)CC(=O)OC(C)(C)C)Cc1c[nH]c2ccccc12,inactive
20,COc1ccc(S(=O)(=O)N[C@@H]2CC[C@H](CC(=O)N3CCC(Cc4ccccc4)CC3)O[C@H]2CO)cc1,inactive

row,SMILES,cytotoxicity call
1,N=C(N)NCCNS(=O)(=O)c1cccc2cnccc12,active
2,Cc1cccc(CO)n1,inactive
3,CCOc1ccc(S(N)(=O)=O)cc1,inactive
4,C[C@@H]1CCCCO[C@@H](CN(C)S(=O)(=O)c2ccc(Cl)cc2)[C@@H](C)CN([C@H](C)CO)C(=O)c2cc(NC(=O)Nc3ccc4c(c3)OCO4)ccc2O1,inactive
5,C[C@H](CO)N1C[C@H](C)[C@@H](CN(C)S(=O)(=O)c2ccccc2)OCCCC[C@H](C)Oc2ccc(NC(=O)Nc3cccc4ccccc34)cc2C1=O,inactive
6,C[C@@H]1CN([C@@H](C)CO)C(=O)c2cc(NS(=O)(=O)c3ccc(F)cc3)ccc2O[C@H]1CN(C)S(=O)(=O)c1cccs1,inactive
7,Cc1ccc(S(=O)(=O)N[C@@H]2CC[C@H](CCNC(=O)CN3CCOCC3)O[C@H]2CO)cc1,inactive
8,O=C(C[C@@H]1CC[C@@H]2[C@H](COC[C@@H](O)CN2C(=O)Nc2cccc(Cl)c2)O1)NCc1ccccc1F,inactive
9,C[C@@H]1CN([C@@H](C)CO)C(=O)c2cccc(NC(=O)C3CC3)c2O[C@@H]1CN(C)S(=O)(=O)c1ccc(Cl)cc1,inactive
10,C[C@@H]1CN([C@@H](C)CO)C(=O)Cc2cc(NC(=O)Cn3cnnn3)ccc2O[C@@H]1CN(C)Cc1ccc(Cl)c(Cl)c1,inactive
11,C[C@H](CO)N1C[C@H](C)[C@H](CN(C)S(=O)(=O)c2ccccc2)Oc2ccc(NS(=O)(=O)c3ccccc3)cc2CC1=O,inactive
12,CO[C@H]1O[C@H](CO)[C@@H](OC(=O)Nc2ccc(Oc3ccccc3)cc2)[C@H](OC(=O)Nc2ccccc2-c2ccccc2)[C@@H]1OC(=O)Nc1ccccc1-c1ccccc1,inactive
13,C[C@@H]1CCCCO[C@@H](CN(C)C(=O)Nc2ccc(F)cc2)[C@H](C)CN([C@@H](C)CO)C(=O)c2cc(NS(=O)(=O)c3ccccc3)ccc2O1,inactive
14,CN(C)c1cc[n+](C(=O)N2CCOCC2)cc1,inactive
15,COc1ccc(-c2cnc3c(c2)C(=O)N([C@@H](C)CO)C[C@@H](C)[C@@H](CN(C)S(=O)(=O)c2ccc(OC)cc2)O3)cc1,inactive
16,C[C@@H]1CN([C@@H](C)CO)C(=O)c2cc(NC(=O)Cn3cnnn3)ccc2O[C@H]1CN(C)C(=O)Nc1ccc(F)cc1,inactive
17,C[C@@H]1CN([C@H](C)CO)S(=O)(=O)c2ccc(C#C[C@@H](C)O)cc2O[C@@H]1CN(C)C,inactive
18,COc1ccc(S(=O)(=O)N(C)C[C@@H]2Oc3ccc(NC(=O)c4ccncc4)cc3CC(=O)N([C@H](C)CO)C[C@H]2C)cc1,inactive
19,C[C@H](CO)N1C[C@H](C)[C@H](CN(C)Cc2ccc(Oc3ccccc3)cc2)Oc2ccc(NS(=O)(=O)c3ccc(Cl)cc3)cc2C1=O,inactive
20,Cc1noc(C)c1NC(=O)N(C)C[C@@H]1Oc2ccc(NS(=O)(=O)c3ccccc3)cc2CC(=O)N([C@@H](C)CO)C[C@@H]1C,inactive

# Source: the antibiotic and cytotoxicity screens of Wong et al. (2023)
